# Measured values taken from ChEMBL document CHEMBL4888484, “Replenishing the malaria drug discovery pipeline: Screening and hit evaluation of the MMV Hit Generation Library 1 (HGL1) against asexual blood stage Plasmodium falciparum ,using a nano luciferase reporter read-out” (2022).
# In all, about 150,000 compounds went through this assay and about 540 (0.36%) showed an effect of 50% or more. This is one part of the list.
# Test system: Plasmodium falciparum
# Assay: Primary screen in NF54 nanoGlo assay, in single point, at 2uM, 72h; a lower Z score goes with more inhibition
# Format: functional, Erythrocyte
# Conditions: timepoint 72 hour
SMILES,% Inhibition [%],Z score
COc1ccc(CCCN2CCS(=O)(=O)C(C)(C)C2)cc1F,-11,1.17
CC[C@H](NCc1nnnn1C(C)C)c1cc(F)ccc1F,-18,1.61
Cc1ccc(NC(=O)CCN2CCC3(CCC(=O)NC3)CC2)cc1Cl,-9,1.36
O=C1CN2C(=O)[C@]3(CCN(C(=O)CN4CCOCC4)[C@H]3c3cccc(c3)OCCCN1)c1ccccc12,0,0.02
CCOC(=O)c1ccc2cn(C(C)=O)nc2c1,-7,0.75
Cc1nn(-c2ccccn2)c(O)c1C(c1ccccc1)c1c(C)nn(-c2ccccn2)c1O,96,-9.38
Cc1ccc(CCC(=O)N2CCC(N3CCC[C@@H]3COCc3ccccc3)CC2)cc1C,-3,0.49
Cc1ccc(OCCN)c(C(=O)N2CCNC(=O)[C@@H]2c2ccc(F)cc2)c1,5,-0.61
Nc1cccc(C(=O)OC[C@@H](O)CO)c1,-1,0.19
COc1ccc(NC(=O)CC[C@@H]2NC(=O)c3ccccc3NC2=O)cc1N1CCCCS1(=O)=O,-10,1.25
Cn1cc([C@@H](NC(=O)Nc2cccc(Cl)c2)C2(CO)CCC2)cn1,0,0.03
C=CCc1c(C)nn(-c2nc(CC(=O)NCCC)cs2)c1C,-15,2.49
CN(C)c1nc(NCc2n[nH]c(=O)[nH]2)ncc1F,-1,0.09
CCOc1ncccc1-c1nc2c(cc1C(N)=O)CCC2,3,-0.34
c1cc2c(cc1CN1CCN(Cc3noc(C4CC4)n3)CC1)CCO2,-4,0.57
CC1CCCC(OCC(=O)N2CCC3CCC(C2)N3C)C1 (configuration not stated),-4,0.39
O=C(Nc1ccc2ccccc2c1)c1sc2ccccc2c1Cl,0,-0.02
Cc1cc(C)cc(NC(=O)CC2(CC3=Nc4ccccc4S(=O)(=O)N3)CCCC2)c1,3,-0.35
CCc1nnc(NC(=O)c2cc(-c3ccc(Cl)cc3Cl)oc2C)s1,-30,3.95
CC[C@@H](c1ccncc1)N(CC)C(=O)c1cccnc1C,-1,0.09
O=C(NCCCc1nc2c(s1)CCCC2)c1csnn1,-8,1.1
Cc1ccc(-c2nc(N[C@H]3CCS(=O)(=O)C3)ncc2-c2cncnc2)cc1,-14,2.32

SMILES,% Inhibition [%],Z score
Cc1ccc(C)c(NC(=O)CNC(C)(C)C)c1,-4,0.65
CC(C)C1CCC(NC(=O)c2cc3n(n2)CCCC3)CC1 (configuration not stated),1,-0.17
CONC(=O)N[C@H](c1ccccc1Cl)C(C)C,-14,1.31
Nc1nc(CNC(=O)[C@H]2CCOc3ccccc3C2)n[nH]1,-14,2.78
COCc1cc(NC(=O)NCc2ccc(Cl)c(C)c2)ncn1,0,-0.01
O=C(NCC[C@H]1CCCCN1C1CCCC1)[C@H]1CC[C@H](O)CC1,-5,0.93
Cc1ccc(F)cc1C(=O)N(c1cccc(F)c1)C1CCOCC1,-14,1.52
Cc1cc(-c2nn(-c3ccccc3F)cc2CN(C)C[C@H]2COCCO2)c(C)s1,-7,1.31
Cc1nc(C)c(CC(=O)N2CCNC(=O)[C@@H]2Cc2ccccc2)s1,-3,0.49
Cc1c(C(=O)N2CCN(Cc3cc(F)cc(F)c3)CC2)ccn1C,-12,1.97
Cc1noc(C)c1CN(C)C(=O)Nc1c(C)c(-c2ccccc2)nn1C,-14,1.69
Cc1cc(NCc2nc(-c3cnccn3)n[nH]2)nc(Nc2cccc(O)c2)n1,-1,0.08
COc1ccc2c(c1)CCc1c(C(=O)NCc3ccccc3OC)n[nH]c1-2,-1,0.11
O=C(NCCc1nnc2ccccn12)C1(c2cccc(F)c2)CCCCC1,-4,0.64
O=C(Cc1ccc(Br)cc1)n1cnc2ccccc21,8,-0.94
Cc1ccc2c(c1)c(=O)n(Cc1ccccc1)c(=O)n2CC(=O)N[C@@H](C)c1ccccc1,-16,2.6
CN(c1ccc(C(F)(F)F)cn1)C1CCCCC1,-20,2.34
CC[C@H](C)NC(=O)NCCN1Cc2ccccc2C1,-20,1.87
O=S(=O)(CCC1CCCO1)N1CCCC(N2CCCCC2)C1 (configuration not stated),-4,0.4
CCC(NCCC(=O)N1CCc2ccccc2C1)C1CCCO1 (configuration not stated),0,0.02
Cc1noc([C@H]2CCC(=O)N(CCc3ccccc3)C2)n1,-2,0.27
C[C@H]1CCN(C(=O)c2ccoc2)CC12CCC2,-37,4.36

SMILES,% Inhibition [%],Z score
CCCn1c(C(=O)NCCc2ccccn2)cc2cc(NC(=O)c3ccco3)ccc21,-5,0.63
CCc1nnsc1C(=O)NCCCN1CCC[C@H](C)C1,-7,0.99
Cc1sc(-c2cc(C(F)(F)F)on2)cc1S(=O)(=O)Nc1cccc(Cl)c1C,0,0.03
Cc1cc(Cl)ccc1NC(=O)CCn1c(=O)sc2cc(S(=O)(=O)N3CCCC3)ccc21,-1,0.25
Cc1ccc2c(NC(=O)NC[C@H]3CCOC3)cccc2n1,15,-2.12
Cc1sc(-c2ccn[nH]2)cc1NC(=O)c1n[nH]c2ccccc12,7,-0.7
CCc1nnc2ccc(N3CCN(C)C(=O)C3)nn12,3,-0.4
COCCNC(=O)C(O)C(C)c1ccc(C)cc1 (configuration not stated),-15,1.73
COc1ccc(N2CCN(C(=O)Cn3ccc4ccc(N5CCOCC5)nc43)CC2)cc1,-3,0.45
CNS(=O)(=O)C[C@H]1CCCN1c1nc(C)cnc1C,-7,1.37
N#Cc1ccc(CC(C#N)(Cc2ccc(C#N)cc2)C(=O)Nc2ccc(F)cc2F)cc1,-9,1.69
CC(CC1CCCN1C(=O)OC(C)(C)C)N[C@H]1CC[C@H](O)CC1 (some centres not stated),-7,0.92
Cc1nc(-c2cccnc2)nc(NCCNC(=O)N(C)C)c1C,-8,0.86
O=C(N[C@H]1CN(C(CO)CO)C[C@@H]1C1CC1)c1ccsc1,-10,1.67
Cc1nc(N2CCOCC2)nc(C)c1NC(=O)CC(C)C,-8,1.18
c1cncc(-c2nc3c(cnn3Cc3cccs3)[nH]2)c1,-3,0.24
C=CCn1ncc(-c2cn([C@@H](CC)c3cc(C)ccn3)nn2)c1C,10,-1.39
O=C(CCc1ccncn1)NCCOCc1ccc(Cl)cc1Cl,1,-0.12
Cc1c(C2Nc3ccccc3C(=O)N2CC2CCCO2)cc(C#N)n1C (configuration not stated),-15,1.99
CCS(=O)(=O)Cc1nc2c([nH]1)C[C@H](c1ccc(F)cc1)CNC2=O,2,-0.32
CCC1CCC(C(=O)N(Cc2cccc(OC)n2)CC2(C)COC2)O1 (configuration not stated),-12,1.66
Cc1cc(S(=O)(=O)N2CCc3oncc3C2)ccc1F,-4,0.65

SMILES,% Inhibition [%],Z score
COC[C@H]1[C@H](Nc2ncc(F)c(N(C)C)n2)[C@H]2CCO[C@H]21,-4,0.6
CN(C(=O)NCc1ccco1)[C@@H](CO)C(C)(C)C,-22,2.5
COC1([C@H](C)NCc2scnc2C)CCCC1,-10,1.18
CCCc1nc(C(=O)N2CC[C@@H](CO)[C@@H](O)C2)cs1,-1,0.16
CCn1cc(CN(C)Cc2ccccc2)ccc1=O,-16,1.74
COc1ccccc1[C@H](NC(=O)Nc1cnn(C)c1)c1ccccn1,-11,1.33
COc1cccc(C2(F)CCN(C(=O)[C@H](CO)NC(=O)C(C)C)CC2)c1,-38,4.51
CCCCCNC(=O)C[C@H](c1cccc(OCc2ccccc2)c1)c1c[nH]c2ccccc12,0,-0.01
Cc1cnc(CN(C)Cc2ccnc(C)c2)cn1,-13,2.38
Cc1n[nH]c(C)c1-c1ccc(CS(C)(=O)=O)cn1,-7,0.61
CNC(=O)NC(=O)CN(Cc1cccnc1)C[C@H]1CCCO1,11,-1.34
O=S1(=O)CCCN1Cc1cc(Cl)c2c(c1)OCCO2,29,-3.9
CN(CCCCN1CCOCC1)C(=O)c1cnc(N)s1,1,-0.15
CCn1cnnc1CNC(=O)N1C2CCC1CC(O)(Cc1ccc(F)cc1F)C2 (configuration not stated),-9,1.63
CCC(=O)N(CC(=O)N1CCc2sccc2C1COc1ccc(C(C)C)cc1)CC1CCCO1 (configuration not stated),1,-0.23
Cc1cc(CN(C)S(=O)(=O)Cc2ccccc2)no1,-10,1.68
O=C(NCCc1nccs1)c1ncn[nH]1,-1,0.11
CCOc1ncccc1C(=O)NCc1nc(-c2ccc[nH]c2=O)no1,-12,1.99
CC(c1ccccc1)n1cc(NC(=O)[C@H]2CCN(C)[C@@H](C)C2)cn1 (some centres not stated),-6,1.13
CO[C@H](c1ccc2c(c1)CN(C(=O)c1scc3c1OCCO3)CCO2)C1CCCCC1,-7,1.32
